Source: the antibiotic and cytotoxicity screens of Wong et al. (2023)
This is one part of the list.

system: HepG2; experiment: cytotoxicity call (relative viability < 0.9); settings: 10 µM

Question: `CC(=O)Nc1c(I)c(C(=O)N[C@@H]2[C@@H](O)[C@H](O)[C@@H](CO)O[C@@H]2O)c(I)c(N(C)C(C)=O)c1I` was tested. Which cytotoxicity call did it give?
Answer: inactive

Question: `C[C@@H]1CN([C@@H](C)CO)C(=O)c2cc(NC(=O)CCCCCC(=O)Nc3ccccc3N)ccc2O[C@H]1CN(C)CC1CCCCC1` was tested. Which cytotoxicity call did it give?
Answer: inactive

Question: `Cc1noc(C)c1S(=O)(=O)N(C)C[C@@H]1Oc2ccc(NC(=O)CCC(F)(F)F)cc2CC(=O)N([C@H](C)CO)C[C@H]1C` was tested. Which cytotoxicity call did it give?
Answer: inactive

Question: With `C[C@@H]1CN([C@@H](C)CO)C(=O)c2cccc(NC(=O)Nc3ccc4c(c3)OCO4)c2O[C@H]1CN(C)Cc1ccc(Cl)c(Cl)c1` as the molecule, how does the cytotoxicity call read?
Answer: inactive

Question: `C[C@@H]1CN([C@H](C)CO)C(=O)c2cccc(NC(=O)c3cnccn3)c2O[C@H]1CN(C)S(=O)(=O)c1ccc(F)cc1` was tested. Which cytotoxicity call did it give?
Answer: inactive

Question: Which cytotoxicity call does the source give for `COc1ccc2c3c([nH]c2c1)[C@H](CO)N(C[C@]13CN(CC2CCOCC2)C1)C(=O)Nc1c(noc1C)C` here?
Answer: inactive

Question: For `C[C@H](CO)N1C[C@H](C)[C@H](CN(C)C(=O)Nc2ccc(-c3ccccc3)cc2)OCc2ccccc2-c2c(n(C)c3ccccc23)C1=O`, which cytotoxicity call is on record?
Answer: inactive

Question: Which cytotoxicity call does the source give for `COc1ccc(C#Cc2ccc3c(c2)O[C@@H](CN(C)C(C)=O)[C@@H](C)CN([C@H](C)CO)S3(=O)=O)cc1` here?
Answer: inactive

Question: `COc1cccc(-c2ccc3c(c2)O[C@@H](CN(C)C(=O)C2CCOCC2)[C@H](C)CN([C@@H](C)CO)S3(=O)=O)c1` was tested. Which cytotoxicity call did it give?
Answer: inactive

Question: `COCCNC(=O)C[C@H]1CC[C@H]2[C@@H](COc3ccc(NS(=O)(=O)c4ccc(Cl)cc4)cc3C(=O)N2C)O1` was tested. Which cytotoxicity call did it give?
Answer: inactive

Question: For `Cc1ccc(S(=O)(=O)N(C)C[C@@H]2Oc3ccc(NS(C)(=O)=O)cc3CC(=O)N([C@H](C)CO)C[C@@H]2C)cc1`, which cytotoxicity call is on record?
Answer: inactive

Question: `C[C@@H]1CN([C@@H](C)CO)C(=O)Cc2cc(NC(=O)Nc3ccc(C(F)(F)F)cc3)ccc2O[C@H]1CN(C)Cc1ccc(-c2ccccc2)cc1` was tested. Which cytotoxicity call did it give?
Answer: active

Question: `C[C@@H]1CN([C@H](C)CO)S(=O)(=O)c2ccc(C#CCN(C)C)cc2O[C@@H]1CN(C)S(C)(=O)=O` was tested. Which cytotoxicity call did it give?
Answer: inactive

Question: With `CC(C)NC(=O)N(C)C[C@H]1OCCCC[C@H](C)Oc2ccc(NC(=O)C3CCCCC3)cc2C(=O)N([C@@H](C)CO)C[C@@H]1C` as the molecule, how does the cytotoxicity call read?
Answer: inactive

Question: Which cytotoxicity call does the source give for `Cn1cccc1[C@@H](CN)N1CCc2ccccc2C1` here?
Answer: inactive

Question: For `O=C(C[C@H]1C=C[C@H](NS(=O)(=O)c2ccccc2F)[C@H](CO)O1)NCCCN1CCOCC1`, which cytotoxicity call is on record?
Answer: inactive

Question: With `C[C@H]1CCCCO[C@@H](CN(C)Cc2ccccc2)[C@@H](C)CN([C@@H](C)CO)C(=O)c2cc(NS(=O)(=O)c3ccccc3)ccc2O1` as the molecule, how does the cytotoxicity call read?
Answer: inactive

Question: With `C[C@@H]1CN([C@@H](C)CO)S(=O)(=O)c2ccc(C#CCN(C)C)cc2O[C@H]1CN(C)C(=O)c1ccccc1F` as the molecule, how does the cytotoxicity call read?
Answer: inactive

Question: How did the cytotoxicity call turn out when `CC(C)=CCCC(C)=CCO` was run?
Answer: active

Question: For `C[C@@H]1CCCCO[C@H](CN(C)C(=O)CCCN(C)C)[C@@H](C)CN([C@H](C)CO)C(=O)c2cc(NS(C)(=O)=O)ccc2O1`, which cytotoxicity call is on record?
Answer: inactive

Question: For `O=C([O-])CCC(=O)OCC(NC(=O)C(Cl)Cl)C(O)c1ccc([N+](=O)[O-])cc1.[Na+]` (stereo not drawn), which cytotoxicity call is on record?
Answer: active

Question: `CN(C)C(=O)N1CCC2(CC1)CC1(CCN(S(=O)(=O)C3CC3)CC1)N(C)C2=O` was tested. Which cytotoxicity call did it give?
Answer: inactive

Question: With `Cc1ccc(S(=O)(=O)N[C@@H](Cc2ccccc2)C(=O)NCCCn2cc(CN3C(=O)COC[C@H]3c3ccccc3)nn2)cc1` as the molecule, how does the cytotoxicity call read?
Answer: inactive

Question: How did the cytotoxicity call turn out when `COc1ccc2c3c([nH]c2c1)[C@@H](CO)N(C[C@]13CN(Cc2ccccc2)C1)S(=O)(=O)c1cn(cn1)C` was run?
Answer: inactive

Question: Which cytotoxicity call does the source give for `Cc1noc(C)c1S(=O)(=O)Nc1ccc2c(c1)C(=O)N([C@@H](C)CO)C[C@H](C)[C@@H](CN(C)C(=O)Nc1ccc(C(F)(F)F)cc1)OCCCC[C@@H](C)O2` here?
Answer: inactive

Question: How did the cytotoxicity call turn out when `COCC(=O)Nc1ccc2c(c1)C(=O)N(C)[C@@H]1CC[C@@H](CC(=O)NC3Cc4ccccc4C3)O[C@@H]1CO2` was run?
Answer: inactive

Question: `C[C@@H]1CCCCO[C@H](CN(C)Cc2ccc(C(F)(F)F)cc2)[C@H](C)CN([C@H](C)CO)C(=O)c2cc(NS(=O)(=O)c3ccc(Cl)cc3)ccc2O1` was tested. Which cytotoxicity call did it give?
Answer: active

Question: `C[C@H](CO)N1C[C@H](C)[C@H](CN(C)S(C)(=O)=O)OCCCC[C@H](C)Oc2ccc(N(C)C)cc2C1=O` was tested. Which cytotoxicity call did it give?
Answer: inactive

Question: How did the cytotoxicity call turn out when `C[C@@H]1CN([C@@H](C)CO)S(=O)(=O)c2ccc(Br)cc2O[C@@H]1CN(C)Cc1ccc(C(=O)O)cc1` was run?
Answer: inactive

Question: How did the cytotoxicity call turn out when `COc1ccc(S(=O)(=O)Nc2ccc3c(c2)C(=O)N([C@H](C)CO)C[C@@H](C)[C@H](CN(C)Cc2ccc4c(c2)OCO4)OCCCC[C@@H](C)O3)cc1` was run?
Answer: inactive

Question: With `COc1ccc(-c2cnc3c(c2)C(=O)N([C@@H](C)CO)C[C@@H](C)[C@H](CN(C)C(=O)Cc2ccncc2)O3)cc1` as the molecule, how does the cytotoxicity call read?
Answer: inactive

system: S. aureus RN4220; experiment: growth inhibition call (relative growth <= 0.2); settings: 50 µM

Question: How did the growth inhibition call turn out when `Nc1nc(=O)n([C@@H]2O[C@H](CO)[C@@H](O)[C@@H]2F)cc1I` was run?
Answer: inactive

Question: Which growth inhibition call does the source give for `COc1ccc(NC(=O)Nc2ccc3c(c2)C(=O)N([C@@H](C)CO)C[C@H](C)[C@@H](CN(C)CC2CC2)OCCCC[C@H](C)O3)cc1` here?
Answer: inactive

Question: How did the growth inhibition call turn out when `CC(CCc1ccc(O)cc1)NCC(O)c1ccc(O)cc1.Cl` (stereo not drawn) was run?
Answer: inactive

Question: With `COc1ccccc1NC(=O)N(C)C[C@@H]1Oc2ncc(C#CC(C)C)cc2C(=O)N([C@@H](C)CO)C[C@H]1C` as the molecule, how does the growth inhibition call read?
Answer: inactive

Question: `Cc1noc(C)c1NC(=O)Nc1ccc2c(c1)C(=O)N([C@@H](C)CO)C[C@H](C)[C@H](CN(C)S(=O)(=O)c1cccs1)OCCCC[C@H](C)O2` was tested. Which growth inhibition call did it give?
Answer: inactive

Question: `COc1ccc(NC(=O)N(C)C[C@H]2OCCCC[C@@H](C)Oc3ccc(NC(=O)CCC(F)(F)F)cc3C(=O)N([C@@H](C)CO)C[C@H]2C)cc1` was tested. Which growth inhibition call did it give?
Answer: inactive

Question: With `C[C@H](CO)N1C[C@H](C)[C@@H](CN(C)Cc2ccc(C(=O)Nc3ccccc3N)cc2)OCc2cn(nn2)CCCC1=O` as the molecule, how does the growth inhibition call read?
Answer: inactive

Question: `C[C@@H]1O[C@@H](O[C@H]2[C@H](O[C@H]3[C@H](O)[C@@H](C(=O)O)O[C@@H](O[C@H]4CC[C@]5(C)[C@H]6CC[C@]78OC[C@@]9(CCC(C)(C)C[C@@H]97)[C@H](O)C[C@@]8(C)[C@]6(C)CC[C@H]5C4(C)C)[C@@H]3OC3O[C@H](CO)[C@@H](O)[C@H](O)[C@H]3O)O[C@H](CO)[C@H](O)[C@@H]2O)[C@H](O)[C@H](O)[C@H]1O` (stereo partly drawn) was tested. Which growth inhibition call did it give?
Answer: inactive

Question: With `C[C@H](CO)N1C[C@H](C)[C@H](CN(C)Cc2cccnc2)Oc2cc(C#CCN(C)C)ccc2S1(=O)=O` as the molecule, how does the growth inhibition call read?
Answer: inactive

Question: For `CC(=O)Nc1c(I)c(C(=O)N[C@@H]2[C@@H](O)[C@H](O)[C@@H](CO)O[C@@H]2O)c(I)c(N(C)C(C)=O)c1I`, which growth inhibition call is on record?
Answer: inactive

Question: With `C[C@@H]1CN([C@@H](C)CO)C(=O)c2cc(NC(=O)CCCCCC(=O)Nc3ccccc3N)ccc2O[C@H]1CN(C)CC1CCCCC1` as the molecule, how does the growth inhibition call read?
Answer: inactive

Question: Which growth inhibition call does the source give for `Cc1noc(C)c1S(=O)(=O)N(C)C[C@@H]1Oc2ccc(NC(=O)CCC(F)(F)F)cc2CC(=O)N([C@H](C)CO)C[C@H]1C` here?
Answer: inactive

Question: Which growth inhibition call does the source give for `C[C@@H]1CN([C@@H](C)CO)C(=O)c2cccc(NC(=O)Nc3ccc4c(c3)OCO4)c2O[C@H]1CN(C)Cc1ccc(Cl)c(Cl)c1` here?
Answer: inactive

Question: `C[C@@H]1CN([C@H](C)CO)C(=O)c2cccc(NC(=O)c3cnccn3)c2O[C@H]1CN(C)S(=O)(=O)c1ccc(F)cc1` was tested. Which growth inhibition call did it give?
Answer: inactive

Question: Which growth inhibition call does the source give for `COc1ccc2c3c([nH]c2c1)[C@H](CO)N(C[C@]13CN(CC2CCOCC2)C1)C(=O)Nc1c(noc1C)C` here?
Answer: inactive

Question: `C[C@H](CO)N1C[C@H](C)[C@H](CN(C)C(=O)Nc2ccc(-c3ccccc3)cc2)OCc2ccccc2-c2c(n(C)c3ccccc23)C1=O` was tested. Which growth inhibition call did it give?
Answer: inactive

Question: `COc1ccc(C#Cc2ccc3c(c2)O[C@@H](CN(C)C(C)=O)[C@@H](C)CN([C@H](C)CO)S3(=O)=O)cc1` was tested. Which growth inhibition call did it give?
Answer: inactive

Question: How did the growth inhibition call turn out when `COc1cccc(-c2ccc3c(c2)O[C@@H](CN(C)C(=O)C2CCOCC2)[C@H](C)CN([C@@H](C)CO)S3(=O)=O)c1` was run?
Answer: inactive

Question: How did the growth inhibition call turn out when `COCCNC(=O)C[C@H]1CC[C@H]2[C@@H](COc3ccc(NS(=O)(=O)c4ccc(Cl)cc4)cc3C(=O)N2C)O1` was run?
Answer: inactive

Question: With `Cc1ccc(S(=O)(=O)N(C)C[C@@H]2Oc3ccc(NS(C)(=O)=O)cc3CC(=O)N([C@H](C)CO)C[C@@H]2C)cc1` as the molecule, how does the growth inhibition call read?
Answer: inactive

Question: How did the growth inhibition call turn out when `C[C@@H]1CN([C@@H](C)CO)C(=O)Cc2cc(NC(=O)Nc3ccc(C(F)(F)F)cc3)ccc2O[C@H]1CN(C)Cc1ccc(-c2ccccc2)cc1` was run?
Answer: inactive

Question: For `C[C@@H]1CN([C@H](C)CO)S(=O)(=O)c2ccc(C#CCN(C)C)cc2O[C@@H]1CN(C)S(C)(=O)=O`, which growth inhibition call is on record?
Answer: inactive

Question: `CC(C)NC(=O)N(C)C[C@H]1OCCCC[C@H](C)Oc2ccc(NC(=O)C3CCCCC3)cc2C(=O)N([C@@H](C)CO)C[C@@H]1C` was tested. Which growth inhibition call did it give?
Answer: inactive

Question: With `Cn1cccc1[C@@H](CN)N1CCc2ccccc2C1` as the molecule, how does the growth inhibition call read?
Answer: inactive

Question: For `O=C(C[C@H]1C=C[C@H](NS(=O)(=O)c2ccccc2F)[C@H](CO)O1)NCCCN1CCOCC1`, which growth inhibition call is on record?
Answer: inactive

Question: How did the growth inhibition call turn out when `C[C@H]1CCCCO[C@@H](CN(C)Cc2ccccc2)[C@@H](C)CN([C@@H](C)CO)C(=O)c2cc(NS(=O)(=O)c3ccccc3)ccc2O1` was run?
Answer: inactive

Question: How did the growth inhibition call turn out when `C[C@@H]1CN([C@@H](C)CO)S(=O)(=O)c2ccc(C#CCN(C)C)cc2O[C@H]1CN(C)C(=O)c1ccccc1F` was run?
Answer: inactive

Question: How did the growth inhibition call turn out when `CC(C)=CCCC(C)=CCO` was run?
Answer: inactive

Question: With `C[C@@H]1CCCCO[C@H](CN(C)C(=O)CCCN(C)C)[C@@H](C)CN([C@H](C)CO)C(=O)c2cc(NS(C)(=O)=O)ccc2O1` as the molecule, how does the growth inhibition call read?
Answer: inactive

Question: How did the growth inhibition call turn out when `O=C([O-])CCC(=O)OCC(NC(=O)C(Cl)Cl)C(O)c1ccc([N+](=O)[O-])cc1.[Na+]` (stereo not drawn) was run?
Answer: inactive

Question: With `CN(C)C(=O)N1CCC2(CC1)CC1(CCN(S(=O)(=O)C3CC3)CC1)N(C)C2=O` as the molecule, how does the growth inhibition call read?
Answer: inactive

Question: For `Cc1ccc(S(=O)(=O)N[C@@H](Cc2ccccc2)C(=O)NCCCn2cc(CN3C(=O)COC[C@H]3c3ccccc3)nn2)cc1`, which growth inhibition call is on record?
Answer: inactive
